# Measurements taken from the supplement of paper PMC4166925.
# ± gives the standard deviation of the averaged measurements. The full ranking holds about 33,000 sequences; the median of “E-score (dimensionless, -0.5 to 0.5)” is about -0.046, and the highest 2% start at about 0.36. Some of the results follow.
# Test system: T1, SpTbr T-box DNA-binding domain (GST fusion)
# T1 sequence: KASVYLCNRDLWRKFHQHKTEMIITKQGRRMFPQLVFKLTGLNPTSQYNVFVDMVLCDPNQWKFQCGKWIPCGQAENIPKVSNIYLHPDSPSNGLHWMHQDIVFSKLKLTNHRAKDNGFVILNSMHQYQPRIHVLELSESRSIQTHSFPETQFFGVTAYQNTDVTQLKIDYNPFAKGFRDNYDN
# Assay: PBM E-score of 8-mer (E-score (dimensionless, -0.5 to 0.5)); Tbr is Tbrain of the sea star Patiria miniata (Pm) or the sea urchin Strongylocentrotus purpuratus (Sp); higher = stronger binding preference; most listed sequences are background and not binding sites
# Conditions: the construct has about 5 more residues each side
# In short: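 Expression of GST-fused Tbr T-box DNA-binding domains, each holding the full T-box plus roughly five flanking residues, was carried out in BL21 E. coli at 20 °C, with purification by glutathione affinity chromatography. Universal Agilent arrays made double-stranded by primer extension were incubated with the protein at 200 nM in PBS (pH 7.5), then scanned and quantified. All ungapped 8-mers were scored from probe intensities, and each received an enrichment E-score from the Universal PBM Analysis Suite, averaged over duplicate arrays.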
row,Sequence,PBM E-score of 8-mer
1,CAGTTCGC,0.287 ± 0.028
2,AATAAAGC,-0.046 ± 0.03
3,CATATTGG,0.0356 ± 0.017
4,CGATAGAA,-0.106 ± 0.026
5,CTTGGCGC,0.281 ± 0.0057
6,AAGTTGGG,-0.269 ± 0.078
7,CTCCGAGA,-0.234 ± 0.027
8,TACCTCTA,-0.164 ± 0.002
9,ACGACGGA,-0.0459 ± 0.049
10,CAGGGAGA,-0.135 ± 0.0097
11,GGAAACTA,-0.15 ± 0.00099
12,ATTTCGCG,0.389 ± 0.016
13,AACTCTGC,0.164 ± 0.011
14,CGAGGCAG,0.00575 ± 0.014
15,ATTTCAAC,0.0766 ± 0.074
16,TCATGCGA,0.133 ± 0.0089
17,GAAAACTC,-0.168 ± 0.0071
18,ATTCGTTC,-0.0491 ± 0.048
19,ATCTGAGC,-0.133 ± 0.0053
20,CTGAGATC,0.0205 ± 0.036
21,AGAAGGAC,-0.209 ± 0.038
22,GTTCATTA,-0.205 ± 0.056
23,GTTTAGAA,-0.164 ± 0.028
24,CAGTCTTA,-0.259 ± 0.01
25,GGCCCGCC,-0.0359 ± 0.049

row,Sequence,PBM E-score of 8-mer
1,GAAAATAA,-0.0911 ± 0.059
2,CATTGCTC,-0.166 ± 0.016
3,GAGACCCA,-0.0603 ± 0.078
4,ACCAGGTG,0.3638 ± 0.0033
5,AACTAAGC,-0.268 ± 0.004
6,CTGGCGAA,0.0471 ± 0.05
7,CCACAGGG,0.041 ± 0.013
8,AAGTCGAG,0.109 ± 0.066
9,AGAAGGTA,-0.167 ± 0.031
10,AGTTGAGC,-0.143 ± 0.097
11,CGTGGTCC,-0.204 ± 0.045
12,CCTATGAC,-0.049 ± 0.0007
13,AAAATGCT,-0.27 ± 0.019
14,ATCAGTGA,0.139 ± 0.013
15,GGAGTTAA,-0.088 ± 0.11
16,CGATGTCC,-0.155 ± 0.013
17,ATCCTACC,-0.141 ± 0.013
18,CTCGCAGA,0.0495 ± 0.024
19,AGCCGGTG,-0.0142 ± 0.0014
20,GAGGGTAC,-0.142 ± 0.018
21,AGGTGATC,0.116 ± 0.085
22,ACGTCCAT,-0.0423 ± 0.096
23,GGAATTGA,-0.164 ± 0.058
24,ACTAATGA,-0.119 ± 0.0051
25,TCCGCTCA,-0.134 ± 0.0034

row,Sequence,PBM E-score of 8-mer
1,ATTGAAAC,-0.166 ± 0.016
2,GGGTTACA,-0.0798 ± 0.0058
3,ACGTATTA,0.00743 ± 0.069
4,CACTCGTA,0.0708 ± 0.022
5,GCACCTTA,0.404 ± 0.026
6,CAGGATTC,-0.0775 ± 0.06
7,AGCGCAGG,-0.112 ± 0.082
8,CGATCACG,0.221 ± 0.037
9,CGGCCACG,-0.0155 ± 0.052
10,CGCGAAGC,0.324 ± 0.033
11,ACAGTCTC,0.102 ± 0.041
12,CGGACTAC,-0.195 ± 0.018
13,CAGCAGGC,-0.0589 ± 0.024
14,ACTTAGAG,-0.0957 ± 0.015
15,GTAGTCGA,-0.0817 ± 0.051
16,AGTACATG,-0.06753 ± 0.00033
17,ACCTGACA,0.251 ± 0.016
18,GGGTGTAC,-0.0335 ± 0.078
19,ATTACTGG,-0.152 ± 0.022
20,ACTATGTG,0.137 ± 0.022
21,CCCAGTCA,-0.285 ± 0.038
22,CCGGATCC,-0.25 ± 0.02
23,CAGCGGTC,-0.18 ± 0.023
24,ACTTCCGG,-0.11 ± 0.035
25,AAGGGAGC,0.0395 ± 0.013

row,Sequence,PBM E-score of 8-mer
1,ACCTGAAA,0.0131 ± 0.042
2,AAGCATGT,-0.083 ± 0.043
3,GATAAAGC,0.0575 ± 0.077
4,CCGTCTGC,0.118 ± 0.05
5,AGCCAAAT,0.0358 ± 0.01
6,AAATGTCG,0.0946 ± 0.046
7,TATTACAA,-0.0456 ± 0.052
8,ACAACGAG,-0.0178 ± 0.044
9,ATGCGGTA,0.0163 ± 0.082
10,AATCTCAT,-0.0127 ± 0.017
11,CTAGGGGA,-0.142 ± 0.062
12,CAGTCACA,0.273 ± 0.031
13,CACAATCC,0.0504 ± 0.056
14,AAGGAGCA,-0.281 ± 0.049
15,CTCGACAG,0.238 ± 0.012
16,ATTTTTAG,-0.0922 ± 0.024
17,ACTCACGA,0.114 ± 0.014
18,CTGGTGTC,0.312 ± 0.033
19,TCGTCGCA,0.114 ± 0.038
20,CGGAAAGA,-0.148 ± 0.026
21,GAGCTGCC,0.0961 ± 0.0086
22,CCAAACTA,-0.216 ± 0.12
23,AACGAACT,0.0664 ± 0.032
24,GACACTGC,0.202 ± 0.018
25,CCATAACC,0.0123 ± 0.046

row,Sequence,PBM E-score of 8-mer
1,ATCGGTTG,0.0891 ± 0.083
2,ATGAGGCG,0.194 ± 0.024
3,ACGATAGT,-0.0125 ± 0.0048
4,CTGGGGGC,-0.241 ± 0.085
5,TGATCACA,0.3239 ± 0.0012
6,AGCAATGA,-0.00846 ± 0.0055
7,GGAGTTCA,0.0197 ± 0.031
8,AGCAACGG,-0.105 ± 0.035
9,CCTACGTA,-0.305 ± 0.018
10,AAATGGCG,-0.0381 ± 0.038
11,CTGGATCA,-0.0483 ± 0.036
12,CGAATTCA,0.0155 ± 0.0036
13,TAGAACTA,-0.112 ± 0.0026
14,CGGCAATA,0.0054 ± 0.037
15,AGCCAGGC,-0.252 ± 0.052
16,CAGTTCCG,-0.125 ± 0.018
17,AAATTTGG,-0.192 ± 0.02
18,ATAAGCGC,0.22 ± 0.0039
19,ATGAGTCC,-0.241 ± 0.048
20,AGAGCCAT,0.0497 ± 0.00099
21,GCCAGTCC,-0.185 ± 0.019
22,AGACCCCG,-0.124 ± 0.023
23,CTGCACTC,-0.0706 ± 0.092
24,CCCACGTC,-0.0245 ± 0.025
25,GACAAAGC,0.0918 ± 0.026

row,Sequence,PBM E-score of 8-mer
1,AATGAGGG,-0.268 ± 0.015
2,CTTGCACA,0.119 ± 0.039
3,CGCGGCAG,0.0441 ± 0.043
4,ACTGTTTC,-0.0432 ± 0.0063
5,AGCCCGAC,-0.12 ± 0.0043
6,ACCTATCT,0.102 ± 0.034
7,GACCCCTA,-0.142 ± 0.008
8,GATCGAGC,-0.23 ± 0.068
9,AGCCTAAG,-0.157 ± 0.049
10,TATCGATA,-0.0181 ± 0.014
11,ACCTGGAT,-0.0186 ± 0.074
12,GGAGTAGA,-0.213 ± 0.031
13,ACGCGTAT,0.132 ± 0.0031
14,GTTGTCTA,-0.123 ± 0.027
15,ATCGACAG,0.286 ± 0.005
16,CACACAGA,0.0669 ± 0.045
17,AGCTGGTC,-0.207 ± 0.022
18,AACCTATA,-0.123 ± 0.024
19,CGTCTAAG,-0.0186 ± 0.15
20,ACTGTCCA,0.0295 ± 0.017
21,CCAAGACG,-0.0885 ± 0.023
22,CTTGTCGA,0.185 ± 0.0023
23,CAAACGAA,0.0634 ± 0.013
24,AGTGGTCA,0.133 ± 0.0063
25,ATGAGGTC,0.000435 ± 0.095

row,Sequence,PBM E-score of 8-mer
1,CCACCCGG,0.063 ± 0.014
2,AACAAACT,-0.04 ± 0.019
3,ACTCAAAG,-0.107 ± 0.039
4,CCTCGACC,0.0188 ± 0.0052
5,CTCAGCGA,0.0708 ± 0.071
6,CCGGATGA,-0.298 ± 0.022
7,AAGCGTGA,0.415 ± 0.01
8,AGCAAGCC,-0.198 ± 0.008
9,ACATGCAG,-0.0712 ± 0.067
10,CTACCGAG,-0.07 ± 0.013
11,CTTTAATA,-0.218 ± 0.087
12,AGACAAAC,-0.0536 ± 0.013
13,CGTCGAAC,-0.15 ± 0.011
14,CTAGTGGC,0.119 ± 0.068
15,AACAGGTA,0.0912 ± 0.072
16,AATAGGCC,-0.249 ± 0.1
17,CGATCTCC,-0.0233 ± 0.053
18,TTTAGAAA,-0.0645 ± 0.028
19,CGGTTTAC,0.0711 ± 0.01
20,AGTCCTGA,-0.198 ± 0.011
21,GCTCTATA,-0.203 ± 0.014
22,AATGGACT,-0.104 ± 0.02
23,CTGACTGA,-0.195 ± 0.0035
24,AAAGTGGG,0.0835 ± 0.049
25,AATTATAT,-0.21 ± 0.1

row,Sequence,PBM E-score of 8-mer
1,CGCGCGAG,0.304 ± 0.036
2,AGAACAAA,-0.086 ± 0.039
3,CAGCTAGC,0.117 ± 0.0012
4,CACGAGAG,-0.0242 ± 0.12
5,AATGGGAT,-0.2243 ± 0.00058
6,GACCTGAA,0.0345 ± 0.0032
7,CTAATCTC,-0.0143 ± 0.027
8,TCAGCTAA,-0.0174 ± 0.025
9,CGCATGTC,0.0857 ± 0.014
10,GATACATA,-0.124 ± 0.0059
11,CGGAACCG,-0.2455 ± 0.0023
12,CGTAACCA,-0.108 ± 0.069
13,CCTTCCCC,-0.198 ± 0.14
14,ACACCAGA,0.254 ± 0.049
15,AAACGTTA,-0.0697 ± 0.051
16,CCAAGGGC,-0.0901 ± 0.039
17,AAAATCCG,0.0727 ± 0.055
18,ATACTATA,0.0149 ± 0.0097
19,AAAATCGA,-0.0432 ± 0.048
20,GCGTCTGA,-0.00579 ± 0.0016
21,CTGAGGCA,0.0573 ± 0.083
22,CGATGCGC,0.052 ± 0.031
23,CGTAAAAG,-0.0359 ± 0.073
24,AACGATAT,0.0227 ± 0.017
25,CAACTCAA,-0.0247 ± 0.11

row,Sequence,PBM E-score of 8-mer
1,TAGTCAAA,-0.232 ± 0.04
2,CATTGAGC,-0.016 ± 0.022
3,CGATCTTA,-0.0349 ± 0.0034
4,CGAAGAGC,-0.069 ± 0.0032
5,ACGGTCCT,-0.0863 ± 0.015
6,TTACGGAA,-0.136 ± 0.043
7,CTTAAGAC,-0.231 ± 0.0058
8,CCGCGTAA,-0.02 ± 0.05
9,ATGCGCTA,0.0416 ± 0.027
10,ATGATGGG,-0.119 ± 0.093
11,AGTGCCGG,0.228 ± 0.022
12,AACCGTGT,0.169 ± 0.029
13,ACGAGACG,-0.0243 ± 0.072
14,GTTTGCCA,0.0393 ± 0.092
15,AAACCCAT,-0.0208 ± 0.039
16,CACTAAGC,0.114 ± 0.058
17,AGCTTGAT,-0.107 ± 0.074
18,ATAGCAAG,0.09255 ± 0.00052
19,GCGTCAAC,0.3857 ± 0.0035
